For 167 variants, self-cleavage results are on record in the RNAGym collection of RNA variant scans (doi:10.7554/elife.90254).

Read counts are not given, so values of variants with three or more changes are uncertain.

B1: LINE1-mini (parent)
chain: GGCAGAGCUCAACACAGCGUGGCAAAGUGGCUGUGGCUAGACUGCC

Variants of B1 are the subject of this series. Put plainly: self-cleavage, relative activity (ratio to wild type); higher = more cleavage; in vitro, sequencing; the parent is a self-cleaving ribozyme.
With G5C G7C U28G G40A, the self-cleavage was determined as 0.04.

In the case of G5C C8G U9C C10A A26C, the self-cleavage was 0.01.

As for G5C C10A G21A C46G, the self-cleavage came to 0.02.

For G5C G7U C10U A24U G30U C46A, the self-cleavage worked out at 0.04.

Take G5C C10A A26U G27C: the self-cleavage worked out at 0.02.

G5C C18U G21C: the self-cleavage worked out at 0.03.

Take G5C C8U U28G G33C A41C G44U: the self-cleavage was determined as 0.02.

As for G5C C10U C23A, the self-cleavage was found to be 0.04.

With G5C C18G C37U, the self-cleavage was 0.01.

As for G5C C15A U20G U28G U43C G44A, the self-cleavage was determined as 0.

For the variant G5C C13A A26U, the self-cleavage came to 0.04.

On to G5C C15A A24C G36U A41C C46A, for which the self-cleavage came to 0.01.

On to G5C C15A A39C, for which the self-cleavage turned out to be 0.02.

For the variant G5C A26C G30A, the self-cleavage worked out at 0.04.

For the variant G5C C37G G40A, the self-cleavage was 0.12.

For G5C C10U G33U G44A, the self-cleavage was determined as 0.02.

With G5C C10U A11U G21A A26C C45A, the self-cleavage was 0.03.

In the case of G5C C10A A16U C18U U20G G27A, the self-cleavage worked out at 0.06.

For the variant G5C G7U G17U G44C, the self-cleavage was 0.12.

For the variant G5C C18U G27C G29C U34G, the self-cleavage was 0.11.

For G5C C23U U34G, the self-cleavage is 0.02.

Regarding G5C C15A G21U G36C, the self-cleavage came out at 0.03.

Consider G5C C10G C23G C37U U38G C45U, for which the self-cleavage was found to be 0.01.

Take G5C C10U G21U: the self-cleavage was 0.03.

With G5C C10A G35A, the self-cleavage is 0.04.

With G5C G7A C8G C15U G30U G35U A39U, the self-cleavage was found to be 0.32.

On to G5C G17A A24C C46A, for which the self-cleavage turned out to be 0.04.

Turning to G5C C8G U34C, the self-cleavage is 0.13.

On to G5C C13G A16C, for which the self-cleavage is 0.01.

As for G5C G7A C10G C23G U38G A41C, the self-cleavage was 0.01.

As to G5C C10A G17C G27A, the self-cleavage was 0.02.

On to G5C C10A G19A C46G, for which the self-cleavage stood at 0.01.

Take G5C G7A C31U A39C: the self-cleavage is 0.03.

G5C G7U U38G: the self-cleavage was found to be 0.03.

Consider G5C C8A G19A G29A G35U, for which the self-cleavage was found to be 0.28.

In the case of G5C C15A C42U U43A, the self-cleavage turned out to be 0.01.

Turning to G5C G7A A14G G17A G36U, the self-cleavage came to 0.03.

Consider G5C C10G A14G A26U, for which the self-cleavage stood at 0.03.

Take G5C C31A G36U: the self-cleavage was 0.03.

As for G5C A39U G40C, the self-cleavage worked out at 0.05.

Consider G5C C10A G21C C46A, for which the self-cleavage turned out to be 0.03.

For G5C C8A C10G G19C G22A, the self-cleavage stood at 0.02.

For the variant G5C G7U C15G G21C A25U G35C C46U, the self-cleavage turned out to be 0.24.

Take G5C C13G U34C: the self-cleavage was determined as 0.03.

Turning to G5C C15U C18A G27U G33C, the self-cleavage was 0.06.

Consider G5C C37G G44C, for which the self-cleavage stood at 0.06.

As to G5C C15G C18A G19U U20C U32A, the self-cleavage amounted to 0.01.

In the case of G5C C15U U20A C45U, the self-cleavage is 0.02.

As for G5C G7U U9G U34G, the self-cleavage came out at 0.05.

G5C G17C G21U G30A C31G C37A A41C: the self-cleavage was determined as 0.02.

In the case of G5C G7A C8A G44C, the self-cleavage is 0.35.

Take G5C C8A C37A U38C: the self-cleavage came out at 0.37.

For G5C C10A A24U C45G, the self-cleavage was found to be 0.03.

Turning to G5C A39G U43G, the self-cleavage was 0.

As to G5C A26U G44C, the self-cleavage was 0.07.

Turning to G5C C18A U20G, the self-cleavage stood at 0.02.

For the variant G5C C10A C37G, the self-cleavage is 0.02.

As to G5C G7U G17C A39U, the self-cleavage was found to be 0.78.

For G5C C37A G40A A41U, the self-cleavage was 0.03.

As to G5C C13U C23U G35U G40C U43A C45A, the self-cleavage amounted to 0.01.

G5C C13A C37U: the self-cleavage is 0.05.

Consider G5C C13A C37G, for which the self-cleavage turned out to be 0.08.

For G5C C15U G35A, the self-cleavage was found to be 0.01.

On to G5C C8A A11C, for which the self-cleavage came out at 0.

For the variant G5C C37A A41C, the self-cleavage was found to be 0.09.

With G5C C8A G21A, the self-cleavage is 0.33.

For G5C C37A G44A, the self-cleavage was 0.09.

Consider G5C C18A U32A, for which the self-cleavage worked out at 0.07.

G5C C18U G22U G30A: the self-cleavage came to 0.11.

For the variant G5C C15G G19C, the self-cleavage was determined as 0.04.

Turning to G5C C10A G29U, the self-cleavage amounted to 0.05.

With G5C G7U G27C, the self-cleavage came to 0.04.

Consider G5C C15G C23U U32A, for which the self-cleavage worked out at 0.01.

Regarding G5C C13U U20C G22U G27A C45A, the self-cleavage was found to be 0.16.

Take G5C C15G G36U: the self-cleavage came to 0.01.

With G5C C18A G30U G33U, the self-cleavage was determined as 0.01.

Regarding G5C G7C U43A, the self-cleavage was found to be 0.68.

As to G5C C10A G19U U20A, the self-cleavage was 0.02.

Regarding G5C C18A G40U, the self-cleavage turned out to be 0.12.

In the case of G5C C18A A26U U34G G36C A41C G44A, the self-cleavage came out at 0.

Take G5C C15U G29U: the self-cleavage came out at 0.03.

G5C G17C G35A G40U: the self-cleavage came to 0.01.

On to G5C C10A U20A, for which the self-cleavage was 0.02.

In the case of G5C C13U A24C U38C U43G, the self-cleavage worked out at 0.

Consider G5C A26G C37G U38G, for which the self-cleavage worked out at 0.

As for G5C C8G C23A A41G, the self-cleavage was 0.31.

Consider G5C C8A A24G A39U, for which the self-cleavage was 0.06.

On to G5C G7U A16U U28C, for which the self-cleavage amounted to 0.4.

Consider G5C A26U G29A G40A A41C C42U U43G G44C C46A, for which the self-cleavage worked out at 0.01.

On to G5C G7A A24C C45U, for which the self-cleavage came to 0.07.

In the case of G5C C10U C15A C18A A25G, the self-cleavage worked out at 0.04.

Regarding G5C G7A C10G C13U G30A, the self-cleavage stood at 0.03.

On to G5C C18A G44U, for which the self-cleavage was found to be 0.

For G5C C8A G22C, the self-cleavage worked out at 0.05.

Regarding G5C C13G C45U, the self-cleavage was found to be 0.11.

In the case of G5C C8U G44A, the self-cleavage was 0.25.

Take G5C G17U A39C G40C C42A: the self-cleavage came out at 0.

Consider G5C C18U C45G, for which the self-cleavage turned out to be 0.01.

On to G5C C15A U34A, for which the self-cleavage was 0.08.

On to G5C C10U U32C U34C G36C, for which the self-cleavage was 0.02.

G5C C13G G30U U43G G44U C46G: the self-cleavage is 0.02.

As for G5C C23U G30U C31U G33C G40A C46U, the self-cleavage was determined as 0.01.

For the variant G5C C13A G36U, the self-cleavage was found to be 0.01.

As to G5C C10A C18G A26G, the self-cleavage worked out at 0.02.

For G5C C8U C10U A25C, the self-cleavage was 0.02.

For G5C C31G G35U, the self-cleavage is 0.02.

On to G5C G7U A41G C42A, for which the self-cleavage worked out at 0.1.

As to G5C C31A U43G, the self-cleavage came to 0.07.

For the variant G5C C23A C37A, the self-cleavage is 0.03.

Regarding G5C C10A A12G C31U, the self-cleavage came out at 0.02.

G5C C10A G19A G22A: the self-cleavage was 0.04.

Turning to G5C C18U A25U A41U, the self-cleavage worked out at 0.04.

With G5C C13A U34G, the self-cleavage is 0.01.

As for G5C G7A G21A U28C G29U G35C, the self-cleavage is 0.06.

Turning to G5C C10A C45G, the self-cleavage was 0.01.

As to G5C G7U A25G, the self-cleavage is 0.09.

Turning to G5C C18G G30U U34C, the self-cleavage was 0.02.

On to G5C G17C C18A G30A G35U, for which the self-cleavage was 0.03.

For the variant G5C C8U U9G A12G, the self-cleavage amounted to 0.03.

Take G5C C10A C13U G21A C31A: the self-cleavage turned out to be 0.04.

Regarding G5C C10G G17U, the self-cleavage is 0.04.

As to G5C C8U A11C U28A A39C, the self-cleavage turned out to be 0.01.

For the variant G5C G17U A41G, the self-cleavage is 0.11.

Turning to G5C C8U G19U U28C, the self-cleavage worked out at 0.05.

On to G5C C8G C10U C46U, for which the self-cleavage is 0.08.

Consider G5C C18G C37A U43G, for which the self-cleavage came to 0.06.

Take G5C C13U A16G G35U U43A: the self-cleavage turned out to be 0.01.

For the variant G5C C10U G22U, the self-cleavage came out at 0.06.

As for G5C C10A C23G G29U C45A, the self-cleavage amounted to 0.01.

As to G5C C10A C15U G17A A24G A41C, the self-cleavage stood at 0.03.

With G5C C10U C23U G29A, the self-cleavage is 0.04.

Take G5C C10G U20C A25C: the self-cleavage was found to be 0.01.

In the case of G5C C15G C23U A24G C46U, the self-cleavage was 0.01.

Regarding G5C C18A A24C G40A, the self-cleavage is 0.06.

As for G5C C18A C31U C45G, the self-cleavage came out at 0.03.

With G5C C8G U32G G33U U43A, the self-cleavage amounted to 0.03.

With G5C C23A A26U A39G C42U U43C, the self-cleavage is 0.01.

For the variant G5C C8G G27C, the self-cleavage was 0.04.

In the case of G5C C42U U43A, the self-cleavage turned out to be 0.08.

Regarding G5C C18A U28G, the self-cleavage amounted to 0.01.

In the case of G5C C10A U32A A41U, the self-cleavage stood at 0.02.

As for G5C G17C G36U, the self-cleavage was determined as 0.07.

Turning to G5C C8U A16C G44A, the self-cleavage is 0.05.

G5C C8G U20A C46A: the self-cleavage was 0.01.

Turning to G5C C13A C15A G21A, the self-cleavage is 0.05.

As to G5C C10A G22U G35C, the self-cleavage came out at 0.04.

For G5C G7U U32G G40U, the self-cleavage stood at 0.04.

Turning to G5C G7A G29U C31U, the self-cleavage worked out at 0.04.

For the variant G5C G17A U32C A39U, the self-cleavage was 0.01.

Consider G5C G7C A12C, for which the self-cleavage came out at 0.03.

Turning to G5C G7C G30U, the self-cleavage came to 0.11.

For G5C C18U A24C C45U, the self-cleavage was 0.03.

Turning to G5C C8U G22U G30C, the self-cleavage was 0.06.

Regarding G5C C10G A11G, the self-cleavage came out at 0.03.

For the variant G5C G17A G33C, the self-cleavage was 0.04.

Consider G5C A39U G44C, for which the self-cleavage is 0.06.

As to G5C G17A G19C G36A, the self-cleavage amounted to 0.03.

As for G5C C23G U32C, the self-cleavage was found to be 0.01.

For the variant G5C C10A A25C, the self-cleavage stood at 0.03.

For G5C C18A G21U C42U, the self-cleavage stood at 0.01.

As to G5C C8U C23G C42A, the self-cleavage is 0.01.

As to G5C C10U A26C, the self-cleavage stood at 0.01.

In the case of G5C C10G C45U C46A, the self-cleavage amounted to 0.02.

Take G5C C10A A41C: the self-cleavage amounted to 0.03.

As for G5C C8U A12G U20A G27A U34G, the self-cleavage was 0.02.

G5C C8U C31U: the self-cleavage turned out to be 0.

Take G5C C10A U34G A41G: the self-cleavage was determined as 0.
